The text below walks through data of paper PMC7819943, “Rice protein-binding microarrays: a tool to detect cis-acting elements near promoter regions in rice”.

Some of the results follow.

This experiment deals with T1, OsWOX13 (Oryza sativa, UniProt Q5QMM3 1-267).
T1 sequence: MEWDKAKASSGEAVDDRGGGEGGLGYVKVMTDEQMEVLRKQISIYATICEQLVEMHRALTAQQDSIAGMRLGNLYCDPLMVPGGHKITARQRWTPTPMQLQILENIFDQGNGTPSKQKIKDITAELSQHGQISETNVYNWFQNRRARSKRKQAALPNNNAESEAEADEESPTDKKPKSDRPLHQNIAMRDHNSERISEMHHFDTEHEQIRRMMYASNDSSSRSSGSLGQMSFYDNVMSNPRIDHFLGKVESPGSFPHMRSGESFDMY
Description: protein-binding microarray (RPBM); PBS, 2% BSA, 51.3 ng/ul salmon testes DNA, 50 uM zinc acetate, 200 nM TF, 25 C, 1 h; high values mean tight binding. The conditions noted are these: protein: recombinant; tags: N-terminal polyhistidine and DsRed monomer fusion (pET32a); label: CyDye5-dUTP incorporated in the synthesized complementary strand; 3' TTTTT single-stranded linker to array surface; dsDNA, one strand shown. A digest of the protocol:
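An Axon 4000B scanner gave the binding signal as per-feature fluorescence intensity in arbitrary units. This followed washing of a custom Agilent array that had been incubated for 1 h at 25 °C with 200 nM protein in PBS, 2% BSA, salmon testes DNA and 50 µM zinc acetate. The proteins were transcription factors fused at the N-terminus to polyhistidine and DsRed, expressed in E. coli BL21-CodonPlus and purified on Ni–NTA.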
For the sequence “TGTAATTACATAATTTATGTTGTTGTGACTTGTTTTATCACGGAGTCACCTAGTGCAG”, the binding signal is 50300 fluorescence intensity (a.u.). Then “AGCAATGATCAAATTAATATTGATGCATATATATCAAGTTCGGAGTCACCTAGTGCAG”, with 16300 fluorescence intensity (a.u.); and “ACCCCACAATCACGTTGGCAAATAGCAGCTGCCCTGGTGCCGGAGTCACCTAGTGCAG”, with 6170 fluorescence intensity (a.u.); and “CAAATTGAGCACAAATATTTTGGTGTTAAGTTAGAAGGATCGGAGTCACCTAGTGCAG”, with 6570 fluorescence intensity (a.u.).

In the case of “TTAAAATTAACTTTAAAATTTAAATTTAGATTTTAATTTTCGGAGTCACCTAGTGCAG”, the binding signal was 25700 fluorescence intensity (a.u.). With “TCTAAATTACTGTTTAGTCGATGACTCGATGTAATACATTCGGAGTCACCTAGTGCAG” the figure was 19600 fluorescence intensity (a.u.); with “GTATAGTCAATTATTGGCTTTAAATCATCTATAATCAATTCGGAGTCACCTAGTGCAG”, 24700 fluorescence intensity (a.u.).

In the case of “AAATTGATTTGTAGGTCATATACTTCCATTACGAAAATGCCGGAGTCACCTAGTGCAG”, the binding signal was 32500 fluorescence intensity (a.u.). With “CATCTTGTAGCGTCGATGTGATTGGACCTGGGTTTGCCGTCGGAGTCACCTAGTGCAG” the figure was 4480 fluorescence intensity (a.u.); with “GTTAATTTGTACCACGTCAGATATAATCTCAGCGTCGATGCGGAGTCACCTAGTGCAG”, 29200 fluorescence intensity (a.u.).

With “ATTATTGAATGATACTATTTCCGTTCGATGACCATACTCTCGGAGTCACCTAGTGCAG”, the binding signal is 9000 fluorescence intensity (a.u.).

“ATAAACCAGTGACTAATTTATTGCCTGCTGCACACGCGCTCGGAGTCACCTAGTGCAG”: the binding signal was 13200 fluorescence intensity (a.u.). With “CATATAAGTTACAGTGTAATTACACTACGATTGTACTATACGGAGTCACCTAGTGCAG” the figure was 4420 fluorescence intensity (a.u.). Then “TGAATGTAGAAAGATGATTGAGAGGAAAATAGGGAGAAATCGGAGTCACCTAGTGCAG”, with 6790 fluorescence intensity (a.u.). With “TGATGATTTAACTGTGTTGCATGAATTCATTCCTATTTGACGGAGTCACCTAGTGCAG” the figure was 29500 fluorescence intensity (a.u.); with “TAAATTGATCCGGTATTTATAGTTGAGGGATCACTAGTACCGGAGTCACCTAGTGCAG”, 11100 fluorescence intensity (a.u.). Take “TTGCAATTAATTGCTATAATGGATTTCAGATTAATTTCTCCGGAGTCACCTAGTGCAG”: the binding signal is 51000 fluorescence intensity (a.u.). Consider “TTCGGGGATTGAATTTAGGCTATCTGTTGGAGAGAGGGGTCGGAGTCACCTAGTGCAG”, for which the binding signal is 16200 fluorescence intensity (a.u.). For “GGTGTGATTGCTGAAGGTGATGTCAAGGTATGCAAGATAACGGAGTCACCTAGTGCAG”, the binding signal was 33900 fluorescence intensity (a.u.). With “GGACTTATGATTAGCGGCATGACCATACGTGCGCCTATATCGGAGTCACCTAGTGCAG” the figure was 19000 fluorescence intensity (a.u.); with “CCAGGACATCAATTAAACATGTAACTTATTGTTAAGTTTTCGGAGTCACCTAGTGCAG”, 14900 fluorescence intensity (a.u.); with “ATAATTGGTTGAAAAGAGAATATTAGTGGAGAAGTTATATCGGAGTCACCTAGTGCAG”, 4660 fluorescence intensity (a.u.). Then “GCCCATAATTAAATTTAATTTGCCCATTGGAAGTGCTCAACGGAGTCACCTAGTGCAG”, with 34700 fluorescence intensity (a.u.); and “TTATTAAGTCTAATTAATCTATCACTAGCAAATGTTTACTCGGAGTCACCTAGTGCAG”, with 6610 fluorescence intensity (a.u.). Then “GAGATAACGACCACAATCAATTAAATTCTTGGACAAGGGGCGGAGTCACCTAGTGCAG”, with 11500 fluorescence intensity (a.u.); and “GTTATCATGATTTATATTCCCAAGGTTTGACTTAAACATTCGGAGTCACCTAGTGCAG”, with 11400 fluorescence intensity (a.u.).

Regarding “TAAGTCCATAAATTACATATGTAAATTTAGTGTATTTATACGGAGTCACCTAGTGCAG”, the binding signal was 4200 fluorescence intensity (a.u.).

In the case of “GCCATCATTCTTTACTGTCAAATACCTAAACTGCAGCTAACGGAGTCACCTAGTGCAG”, the binding signal was 3820 fluorescence intensity (a.u.). Turning to “AATGATATAAGATTGAGAATGAGAGGATAATTAGACTTGGCGGAGTCACCTAGTGCAG”, the binding signal is 18900 fluorescence intensity (a.u.). With “AATCGATTGATTGATAGCATATGAAGCTGCATGGGCCTAACGGAGTCACCTAGTGCAG” the figure was 45000 fluorescence intensity (a.u.); with “AATCATCATTGACACAACCGAAAACGCCACTGAATACGGTCGGAGTCACCTAGTGCAG”, 3420 fluorescence intensity (a.u.); with “AGCGAAACTGATTGCAAAAGAAGGTAAATCGGCCACTTTACGGAGTCACCTAGTGCAG”, 16900 fluorescence intensity (a.u.). Then “CAGCAGATTGCCCATCTCTCGTTGTACTGCCAATCTCTCCCGGAGTCACCTAGTGCAG”, with 8270 fluorescence intensity (a.u.); and “TATGATTAAAATTGTTTTGAACCATTGCACGCACCAGCATCGGAGTCACCTAGTGCAG”, with 18500 fluorescence intensity (a.u.); and “GCAATCAATCCATCACACACAAACACAAACAAACGCACAGCGGAGTCACCTAGTGCAG”, with 15100 fluorescence intensity (a.u.).

For the sequence “TTTAATTAGTCTCAATAGATTCGTCTCGCAAATTAGTTCACGGAGTCACCTAGTGCAG”, the binding signal was 19800 fluorescence intensity (a.u.). Then “TTTAATATTTTACCAATTACCATTGGTGCGCTTGTCAGTTCGGAGTCACCTAGTGCAG”, with 6120 fluorescence intensity (a.u.). Then “TGACAAAATTGCAACGGAAATTTCTTGGATTTAAATGCAGCGGAGTCACCTAGTGCAG”, with 5780 fluorescence intensity (a.u.). Then “AGTATGTATTAATTAAGCAAACACTCTAGCTTATTTTCTACGGAGTCACCTAGTGCAG”, with 3340 fluorescence intensity (a.u.); and “GGATACTAATTAGATTGGAAGTATATTTACACTCAGTCACCGGAGTCACCTAGTGCAG”, with 41600 fluorescence intensity (a.u.). On to “AATCCAAATTACTACTCCCTCCGTATTTTAATATATGACGCGGAGTCACCTAGTGCAG”, for which the binding signal was 3270 fluorescence intensity (a.u.). As to “TTGTAAATTTATTTAATTATACACATATACCTACTTAAAACGGAGTCACCTAGTGCAG”, the binding signal was 25100 fluorescence intensity (a.u.).
